B1: ch11F11-A06 (bispecific antibody form of 1564 affinity variant A06) (bispecific antibody)
chain 1: EVQLQESGGGLVQPGGSLRLSCATSGFTFSDFYMEWVRQPPGKRLEWIAASRNKANDYTTEYSASVKGRFIVSRDTSQSILYLQMNALRAEDTAIYYCARDAHGKPFAYWGQGTLVTVSA[human IgG1 constant region cut from this listing]GGGGSGGGGSGGGGSQSVLTQPPSASGTPGQRVTISCTGSSSNIGSNDVSWYQQLPGTAPKLLIYANSNRPSGVSDRFSGSKSGTSASLAISGLRSEDEADYYCGASWDEWLNGYVFGGGTKLTVLGGGGSGGGGSGGGGSGGGGSEVQLLESGGGLVQPGGSLRLSCAASGFTFSSYDMSWVRQAPGKGLEWVSAISYDNGNTYYADSVKGRFTISRDNSKNTLYLQMNSLRAEDTAVYYCAKGVLTTLMNWFDYWGQGTLVTVSS
chain 2: DIVMTQSPSSLAVSVGEKVTMS[about 80 residues cut from this listing]FGGGTKLEIK
B2: ch11F11-B02 (bispecific antibody form of 1564 affinity variant B02) (bispecific antibody)
chain 1: EVQLQESGGGLVQPGGSLRLSCATSGFTFSDFYMEWVRQPPGKRLEWIAASRNKANDYTTEYSASVKGRFIVSRDTSQSILYLQMNALRAEDTAIYYCARDAHGKPFAYWGQGTLVTVSA[human IgG1 constant region cut from this listing]GGGGSGGGGSGGGGSQSVLTQPPSASGTPGQRVTISCTGSSSNIGSNDVSWYQQLPGTAPKLLIYANSNRPSGVSDRFSGSKSGTSASLAISGLRSEDEADYYCGTWDDSLNGYVFGGGTKLTVLGGGGSGGGGSGGGGSGGGGSEVQLLESGGGLVQPGGSLRLSCAASGFTFSSYDMSWVRQAPGKGLEWVSAISYDNGNTYYADSVKGRFTISRDNSKNTLYLQMNSLRAEDTAVYYCAKGVLTTLMNWFDYWGQGTLVTVSS
chain 2: DIVMTQSPSSLAVSVGEKVTMS[about 80 residues cut from this listing]FGGGTKLEIK
B3: ch11F11-B09 (bispecific antibody form of 1564 affinity variant B09) (bispecific antibody)
chain 1: EVQLQESGGGLVQPGGSLRLSCATSGFTFSDFYMEWVRQPPGKRLEWIAASRNKANDYTTEYSASVKGRFIVSRDTSQSILYLQMNALRAEDTAIYYCARDAHGKPFAYWGQGTLVTVSA[human IgG1 constant region cut from this listing]GGGGSGGGGSGGGGSQSVLTQPPSASGTPGQRVTISCTGSSSNIGSNDVSWYQQLPGTAPKLLIYANSNRPSGVSDRFSGSKSGTSASLAISGLRSEDEADYYCGAWEESLNGYVFGGGTKLTVLGGGGSGGGGSGGGGSGGGGSEVQLLESGGGLVQPGGSLRLSCAASGFTFSSYDMSWVRQAPGKGLEWVSAISYDNGNTYYADSVKGRFTISRDNSKNTLYLQMNSLRAEDTAVYYCAKGVLTTLMNWFDYWGQGTLVTVSS
chain 2: DIVMTQSPSSLAVSVGEKVTMS[about 80 residues cut from this listing]FGGGTKLEIK
B4: ch11F11-D03 (bispecific antibody form of 1564 affinity variant D03) (bispecific antibody)
chain 1: EVQLQESGGGLVQPGGSLRLSCATSGFTFSDFYMEWVRQPPGKRLEWIAASRNKANDYTTEYSASVKGRFIVSRDTSQSILYLQMNALRAEDTAIYYCARDAHGKPFAYWGQGTLVTVSA[human IgG1 constant region cut from this listing]GGGGSGGGGSGGGGSQSVLTQPPSASGTPGQRVTISCTGSSSNIGSNDVSWYQQLPGTAPKLLIYANSNRPSGVSDRFSGSKSGTSASLAISGLRSEDEADYYCGAWDDSLNGYVFGGGTKLTVLGGGGSGGGGSGGGGSGGGGSEVQLLESGGGLVQPGGSLRLSCAASGFTFSSYDMSWVRQAPGKGLEWVSAISYDNGQTYYADSVKGRFTISRDNSKNTLYLQMNSLRAEDTAVYYCAKGVLTTLMNWFDYWGQGTLVTVSS
chain 2: DIVMTQSPSSLAVSVGEKVTMS[about 80 residues cut from this listing]FGGGTKLEIK
B5: ch11F11-E06 (bispecific antibody form of 1564 affinity variant E06) (bispecific antibody)
chain 1: EVQLQESGGGLVQPGGSLRLSCATSGFTFSDFYMEWVRQPPGKRLEWIAASRNKANDYTTEYSASVKGRFIVSRDTSQSILYLQMNALRAEDTAIYYCARDAHGKPFAYWGQGTLVTVSA[human IgG1 constant region cut from this listing]GGGGSGGGGSGGGGSQSVLTQPPSASGTPGQRVTISCTGSSSNIGSNDVSWYQQLPGTAPKLLIYANSNRPSGVSDRFSGSKSGTSASLAISGLRSEDEADYYCGAWDHSLNGYVFGGGTKLTVLGGGGSGGGGSGGGGSGGGGSEVQLLESGGGLVQPGGSLRLSCAASGFTFSSYDMSWVRQAPGKGLEWVSAISYDNGNTYYADSVKGRFTISRDNSKNTLYLQMNSLRAEDTAVYYCAKGVLTTLMNWFDYWGQGTLVTVSS
chain 2: DIVMTQSPSSLAVSVGEKVTMS[about 80 residues cut from this listing]FGGGTKLEIK
B6: ch11F11-F06 (bispecific antibody form of 1564 affinity variant F06) (bispecific antibody)
heavy: EVQLQESGGGLVQPGGSLRLSCATSGFTFSDFYMEWVRQPPGKRLEWIAASRNKANDYTTEYSASVKGRFIVSRDTSQSILYLQMNALRAEDTAIYYCARDAHGKPFAYWGQGTLVTVSA[human IgG1 constant region cut from this listing]GGGGSGGGGSGGGGSQSVLTQPPSASGTPGQRVTISCTGSSSNIGSNDVSWYQQLPGTAPKLLIYANSNRPSGVSDRFSGSKSGTSASLAISGLRSEDEADYYCGTWAGSLNGYVFGCGTKLTVLGGGGSGGGGSGGGGSGGGGSEVQLLESGGGLVQPGGSLRLSCAASGFTFSSYDMSWVRQAPGKCLEWVSAISYDNGNTYYADSVKGRFTISRDNSKNTLYLQMNSLRAEDTAVYYCAKGVLTTLMNWFDYWGQGTLVTVSS
light: DIVMTQSPSSLAVSVGEKVTMS[about 80 residues cut from this listing][about 120 residues cut from this listing]
B7: ch11F11-48G5 (bivalent bispecific antibody) (bispecific antibody)
chain 1: EVQLQESGGGLVQPGGSLRLSCATSGFTFSDFYMEWVRQPPGKRLEWIAASRNKANDYTTEYSASVKGRFIVSRDTSQSILYLQMNALRAEDTAIYYCARDAHGKPFAYWGQGTLVTVSA[human IgG1 constant region cut from this listing]GGGGSGGGGSGGGGSQSVLTQPPSASGTPGQRVTISCSGSSSNIGNNDVSWYQQLPGTAPKLLIYDNNHRPSGVPDRFSGSKSGTSASLAISGLRSEDEADYYCAAWDDSLNAYVFGCGTKLTVLGGGGSGGGGSGGGGSGGGGSEVQLLESGGGLVQPGGSLRLSCAASGFTFSDYDMSWVRQAPGKCLEWVSSIYPNGSSKYYADSVKGRFTISRDNSKNTLYLQMNSLRAEDTAVYYCAKAGINCTTLRCSSYDAMDVWGQGTLATVSS
chain 2: DIVMTQSPSSLAVSVGEKVTMS[about 80 residues cut from this listing]FGGGTKLEIK
B8: ch11F11-60H6 (bivalent bispecific antibody) (bispecific antibody)
chain 1: EVQLQESGGGLVQPGGSLRLSCATSGFTFSDFYMEWVRQPPGKRLEWIAASRNKANDYTTEYSASVKGRFIVSRDTSQSILYLQMNALRAEDTAIYYCARDAHGKPFAYWGQGTLVTVSA[human IgG1 constant region cut from this listing]GGGGSGGGGSGGGGSQSVLTQPPSASGTPGRRVTISCTGSSSNIGNNDVSWYQQLPGTAPKLLIYANSHRPSGVPDRFSGSKSGTSASLAISGLRSEDEADYYCGSWDDSLNGYVFGCGTKLTVLGGGGSGGGGSGGGGSGGGGSEVQLLESGGGLVQPGGSLRLSCAASGFTFSDYDMSWVRQAPGKCLEWVSMIYSGSSSKYYADSVKGRFTISRDNSKNTLYLQMNSLRAEDTAVYYCARASIACTLQACSYDNAMDVWGQGTLVTVSS
chain 2: DIVMTQSPSSLAVSVGEKVTMS[about 80 residues cut from this listing]FGGGTKLEIK
B9: ch11F11-B11 (bivalent bispecific antibody) (bispecific antibody)
chain 1: EVQLQESGGGLVQPGGSLRLSCATSGFTFSDFYMEWVRQPPGKRLEWIAASRNKANDYTTEYSASVKGRFIVSRDTSQSILYLQMNALRAEDTAIYYCARDAHGKPFAYWGQGTLVTVSA[human IgG1 constant region cut from this listing]GGGGSGGGGSGGGGSQSVLTQPPSASGTPGQRVTISCSGSSSNIGNNDVSWYQQLPGTAPKLLIYDDNHRPSGVPDRFSGSKSGTSASLAISGLRSEDEADYYCGAWDYSLSGYVFGCGTKLTVLGGGGSGGGGSGGGGSGGGGSEVQLLESGGGLVQPGGSLRLSCAASGFTFSDYDMSWVRQAPGKCLEWVSAISYDNGNKYYADSVKGRFTISRDNSKNTLYLQMNSLRAEDTAVYYCAKAGVACTEHMCSSYDAMDVWGQGTLVTVSS
chain 2: DIVMTQSPSSLAVSVGEKVTMS[about 80 residues cut from this listing]FGGGTKLEIK
B10: ch11F11-54H4 (bivalent bispecific antibody) (bispecific antibody)
chain 1: EVQLQESGGGLVQPGGSLRLSCATSGFTFSDFYMEWVRQPPGKRLEWIAASRNKANDYTTEYSASVKGRFIVSRDTSQSILYLQMNALRAEDTAIYYCARDAHGKPFAYWGQGTLVTVSA[human IgG1 constant region cut from this listing]GGGGSGGGGSGGGGSQSVLTQPPSASGTPGQRVTISCSGSSSNIGSNTVTWYQQLPGTAPKLLIYADSKRPSGVPDRFSGSKSGTSASLAISGLRSEDEADYYCGTWDDSLNAYVFGCGTKLTVLGGGGSGGGGSGGGGSGGGGSEVQLLESGGGLVQPGGSLRLSCAASGFTFSDYDMSWVRQAPGKCLEWVSAISSDGSSAYYAASVKGRFTISRDNSKNTLYLQMNSLRAEDTAVYYCAKATIYTSDAPWSSYDAMDVWGQGTLVTVSS
chain 2: DIVMTQSPSSLAVSVGEKVTMS[about 80 residues cut from this listing]FGGGTKLEIK

What follows are binders tested against T1, human IGF1R extracellular domain, recombinant, His tag at C-terminus (human) (assay: ELISA on ECD of IGF1R, bispecific form).
T1 construct: also called human IGF1R ECD; ECD of IGF1R
With B1 the EC50 was 1.19 nM. B2 showed an EC50 of 0.919 nM. Work on B3 yielded an EC50 of 1.08 nM. With B4 the EC50 was 0.666 nM. In the case of B5, the EC50 is reported as 0.668 nM. Binder B6 has an EC50 of 0.467 nM.

These binders were tested against T2, rat IGF1R, recombinant, His tag at C-terminus (rat, UniProt P24062, in part) (assay: ELISA, rat IGF1R coated, anti-human Fab HRP).
T2 construct: also called rat IGF1R (National Research Council Canada)
With B7 the EC50 was 2.44 nM. With B8 the EC50 was 38 nM. B9 gave an EC50 of 35.1 nM. B10 was tested, and the EC50 was 14.2 nM.

The binders below were run against T3, mouse IGF1R, recombinant, His tag at C-terminus (mouse, UniProt Q60751, in part) (assay: ELISA, mouse IGF1R coated, anti-human Fab HRP).
T3 construct: also called mouse IGF1R (R&D systems, 6630-GR/CF)
With B7 the EC50 was 6.2 nM. B8 gave an EC50 of 18.6 nM. Binder B9 has an EC50 of 148 nM.

The binders below were run against T4, monkey IGF1R, recombinant, His tag at C-terminus (monkey) (assay: ELISA, monkey IGF1R coated, anti-human Fab HRP).
T4 construct: also called Monkey IGF1R (National Research Council Canada)
In the case of B7, the EC50 is reported as 6.69 nM. Binder B9 has an EC50 of 180 nM. In the case of B10, the EC50 is reported as 8.83 nM.

Target: T1, human IGF1R extracellular domain, …
Assay: ELISA on ECD of IGF1R, bispecific form
Remark: another data set of the same source
B6 was tested, and the EC50 was 0.857 nM.
